Assay results published in the supplement of paper PMC10126150.
Sequences with one replicate were seen in a single cluster, so their values are uncertain.

Test system: ATP
Assay: switch fluorescence ratio, 500 uM ATP over buffer (Cy3 cluster intensity, sum of 5 cycles each) (fold (ratio)); higher = stronger signal-on switching upon ATP binding; sequences stand for … in TCGTCGGCAGCGTCAGATGTGTATAAGAGACAGTTTTTTTTTTTTTTTTTTTTTTTTT…TC
Conditions: aptamer strand: ATP DNA aptamer (quencher-CACCTGGGGGAGTATTGCGGAGGAAGG + anchor), 100 nM annealed; ATP concentration: 500 uM; one replicate
Method in brief: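 For every switch-domain sequence, the fluorescence ratio is the mean of per-cluster values, each being summed target-cycle Cy3 intensity over summed buffer-cycle Cy3 intensity. Clusters outside 100-1000 RFU were excluded. On a modified Illumina MiSeq flow-cell, the Cy3-labelled switching-strand clusters were annealed to 100 nM quencher-labelled ATP aptamer, imaged in selection buffer and then after 15 min with 500 uM ATP at 22 °C. Five such cycles were run, with NaOH stripping and re-annealing between them.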
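Also: ATP exposure 15 min at 22 °C before imaging.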

Sequence	switch fluorescence ratio
CCCACCCTCC	1.53
TGATAAAGGG	1
GAATGTCCCA	1
AGACGTTCAG	0.995
ATCGGTAGGA	1.02
AGTCGGGTTG	1.01
AAGTTGCCTA	0.993
ACAGAAATAA	0.989
CCAGTATTGC	1.09
TAATAAAAGA	0.995
TTTTGAATG	1.07
CTGCTTGT	1.02
CAAATCCCGG	1.04
ACCTAACTTA	1.09
TGGGAAAGAG	0.957
GTAATAATAG	0.995
TAAAGTGGTA	0.967
CTGTAGAGCT	1.01
CCGCACTAAA	5.31
GGGGTTCCTG	0.948
CTCACGATTA	1.12
CGTGTTCTTA	0.998
TAAGGACAGA	0.975
AAGGAATCGT	0.973
GCTATCAGGA	1.02
AGGTGCACGG	1.03

Sequence	switch fluorescence ratio
AGATGGGACT	0.973
TGTGAAGATT	0.976
TGATCAGGCG	0.988
GCCAGAGGTT	1.03
TAGGCAAAGC	1.02
GAGCCCGAGA	0.98
CAAATTAGGT	0.981
CAATGAGTTC	0.998
ATAGGATTAT	1.05
TTCCATGATA	1.03
TGCTGAATCC	1.02
CGAGAGAGTA	0.975
GCAGGTAAGA	0.976
TCGGTCGC	0.955
GGTGGGAGAG	1.03
GAGCGGCTG	1.02
TGTTAGGGAA	0.991
ACGTATTGAT	1.17
ATCTATGTGT	0.977
AAGGTATGCG	1.11
TTATTGTCTG	0.983
GGGTTATATA	0.977
GTCAGCCCAT	0.949
CCGATCAGGG	1.18
TTACAGCTGG	0.983
GAATACCTGT	0.99

Sequence	switch fluorescence ratio
TTAGTCATAC	1.1
GTGGACATGG	0.949
AGAAACCCAA	1.05
TGTTGTAGTA	1.06
AATCAATATA	0.991
GCGAAGAGCT	1.04
TCACCAGCGA	1.62
GGCGCGCCGA	0.969
GTTCCGAAAT	1.21
GCAAGAGAAA	0.975
GGGTCCGTTC	1.06
TCTTCGAAGC	0.963
TTAGAGTAAA	0.977
CGGTATCGAC	1.05
ACGTGTCATC	1.02
AGTGCCTTGA	0.981
ATCTTAGTAT	0.99
TATGAGGCA	1
TTTTCCACT	1.04
CGGGGCCAGT	0.982
CGGGTGTCTT	1.03
TCGGTCGGTT	1
GTTTTTGCAT	1.03
CCGCTGGTTT	1.41
TTATCCCGCT	1.1
ACCTGATAGA	0.984

Sequence	switch fluorescence ratio
AATGGCCGTA	1.02
CATCTCGTCG	0.954
CTGGGTCGTA	0.943
GGTTATGCAC	1.07
TAGGGCCGG	0.921
GGCACCATCT	1.03
CCGTCGTTCT	1.04
GCGATGTAAG	0.999
AAATCCACTG	1.03
GACACTTTGG	0.981
ACACCAAATG	1.02
CCCGATGCGT	1.54
TCGGAAAACA	0.99
GCCTAGTTTA	0.958
GCGATAGGGA	0.971
CGCCGGGCTA	0.978
GTACGGTT	1.03
GCCTCAGTGA	1.38
TGACTAAAGA	0.978
GAAACTCGTT	1.25
AAGGTGGGCA	1.01
AACAATATTT	1.02
GTCCTAGTAA	1.04
GATCTAAATG	1.02
AGGGATACAA	1.02
CATATACTTG	1.05

Sequence	switch fluorescence ratio
CGCGCATCCG	1.05
CGCCCTCCAT	1.14
GTCCTCGCAG	2.64
TTAACCTACG	1.5
CGTACTGATG	0.992
CATTCGATTA	1.05
CCTAAGCGGG	1.09
CGGTTATGAA	1
TTTTCGTACT	1.05
CGTAACCAAG	1.03
TCCCTATAGA	1.02
GATGGATTAA	1.03
GGGCCTATTT	0.997
CAACTTGAAT	0.965
GGAGGCGCAA	4.8
TACGAGCGCA	1.57
GCTCTAAACA	1.02
GAACTTACTG	1.12
CGCTCTGAT	0.931
CATAGCGTGG	0.998
TCCTCAGTCC	1.4
TTGTTCGCGC	1.03
TCGAACGCAG	2.2
ATCCCACTTA	1.05
TGTCACTGAA	1.05
GGGATTCCAT	1.01

Sequence	switch fluorescence ratio
CCCGTTTATC	1.08
ATTGCAAAGG	0.981
CTGATCGAT	1.98
CCTGTGAAGA	1.01
TGGTCGAGCA	0.994
CGAGCGAATT	1.06
GCGACTTTTC	1.01
GTCATTGTCA	1.02
AAGTCTAATG	0.967
AATTCAATAA	1.01
CAGTAGTTCT	1.02
AGCCAGAGG	1.02
AGTTGGTAGT	1.01
CCGGTTCGCG	1.04
AAGTCAGTCA	0.941
CGGGTTGTAC	1.07
GTGTTGGACG	1.02
CTATTAGACG	1.04
AGACCCGCTA	1.64
GGTGTAGTCA	1.02
ACCTGAGAAC	1.08
CTGCATTGCA	1.06
AGGGAGGAGA	1.02
GCCTATGACA	1.03
AACGCTTAAC	1.84
GAGGAGGCTC	1.03

Sequence	switch fluorescence ratio
CTAAGCAGAG	1.09
TTTCGCAGAT	1.06
TCGGATAGCC	1.1
CTCTGGTCAG	1.05
TCTGGACGGC	1.04
TGGGGTCGGA	0.953
GACTCTACAC	1.32
CGTAGGCAAT	1.73
AGTAACTAA	1.01
ATTCTGACCA	1.05
AAAGAACCTG	1.1
GTTCCAAACT	1.05
GTATTGCTAG	1.01
TACATTGACC	1.14
CAGCTAGCAG	1.02
TCGCTACAAA	1.03
GGTGTATACT	0.986
CATTTTCGCA	1.01
GTCGTAATCC	1.33
GGGATTTCTC	0.975
ATTCTCATGC	0.992
ATCAGAAGTC	0.996
CGGAATTCTT	1.03
TTAGGTATGG	0.989
ATAGCTATTA	0.951
ACACTTGGTA	1.01

Sequence	switch fluorescence ratio
ACCCTGGGAG	1.01
TGTCATTGG	0.994
AAGGAGCTG	1.09
ATCATTGACC	1.11
ACTTGCAATT	1.73
GATAGTATTC	0.987
CTTTATAGTG	0.946
ATTATAATAG	1.01
GCTAATCAGC	0.995
GTTGAATAAG	1.01
AACTCGGGGA	1.42
TGGAAATCAT	1.01
TGGTGAAGA	1.02
GCATAAAAGA	0.981
TTCAGGCAAA	1.01
TATATATACA	0.983
AATTCTGAG	1.02
CGATTGGAA	1.03
GATAGGAGGT	0.994
